According to PubChem BioAssay AID686979 (National Center for Advancing Translational Sciences (NCATS), 2013):
Among all 420,000 compounds or so, about 50,000 (12%) were called active. This list was built around the results that the source calls inconclusive (neither active nor inactive); the mix of calls is not that of the screen. Calls follow the shape of the dose curve; as a rule, active = well fitted inhibition curve with a large enough effect; inconclusive = small, poorly fitted or top-dose-only effect; inactive = flat fitted curve, though single readings scatter. No potency is given beside an inconclusive call; the fits are too rough.

experiment: qHTS for Inhibitors of human tyrosyl-DNA phosphodiesterase 1 (TDP1): qHTS in cells in presence of CPT; details: chicken DT40 Tdp1-/-;hTDP1 cells + 20 nM CPT, ATP luminescence, 48 h; activity change, negative = growth inhibition: at 46.2 µM (top of the series) unless noted; also: nearly all actives have a fitted effect of over 55% in size
Procedure, shortened: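 Chicken DT40 Tdp1-/- cells complemented with human TDP1, 400 cells/well, exposed to compounds plus 20 nM camptothecin for at least 48 h at 37 C; viability read as ATP content by CellTiter-Glo luminescence.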
% is scaled to controls: 0 for no effect and ±100 for the full control effect; potency is read from the fitted curve at half-maximal effect; tags tell the direction and shape of the fitted curve.

| SMILES | Potency | activity change, negative = growth inhibition |
| --- | --- | --- |
| COC(=O)[C@]12CCCCC=C1N(Cc1cccc3ccccc13)C(=O)[C@H](CC(=O)NCc1cccc(C(F)(F)F)c1)C2 | inconclusive [inhibitor, single point] | – |
| CCCN(CCC)CCNC(=O)CS(=O)Cc1nc(-c2ccc(OC)c(OC)c2)oc1C (stereo unspecified) | inactive | – |
| CC(=O)NC(NC(=S)Nc1cccc(Br)c1)C(Cl)(Cl)Cl (stereo unspecified) | inconclusive [inhibitor, single point] | – |
| O=C(COc1ccc(Br)cc1Cl)NC(=O)NCc1ccccc1 | inactive | – |
| CC1(C)C(=O)NC2=C1C(=O)C(=O)c1ccccc12 | active: 1.33 µM | – |
| COc1cccc(CCn2c(N)cc(=O)[nH]c2=S)c1OC | inconclusive [inhibitor, single point] | – |
| O=C(NC1CCN(S(=O)(=O)c2ccc(F)cc2)CC1)c1cccnc1 | inactive | – |
| CCc1nc2ccc(C(=O)N3CCN(C(=O)c4ccco4)CC3)cn2c1N(C=O)Cc1ccc(OC)cc1 | – | inconclusive: -32.3% [inhibitor] |
| CCN(CC)C(=O)c1nn(-c2ccccc2)c2c1C1CCC2(C)C1(C)C (stereo unspecified) | active: 23.1 µM | – |
| COCCn1cnc2c1c(=O)n(Cc1ccc(Br)cc1)c(=O)n2Cc1ccccc1 | inactive | – |
| O=C(c1ccc(S(=O)(=O)NCc2ccco2)cc1)N1CCN(c2ccc(F)cc2)CC1 | inconclusive [inhibitor, single point] | – |
| COc1ccc(CNC(=O)C(c2ccco2)N(C(=O)Cc2cccs2)c2cccnc2)cc1 (stereo unspecified) | inconclusive [inhibitor, single point] | – |
| Cc1nc(N)sc1N=Nc1ccccc1C(F)(F)F | inconclusive [inhibitor, partial curve, poor fit] | – |
| CCCCCC(=O)N1C[C@@H](n2cc(COC(=O)c3ccccc3)nn2)[C@H](O)C[C@@H]1c1ccc(Cl)cc1 | inconclusive [inhibitor, single point] | – |
| Cc1nonc1NC(=O)CSc1nc(C2CCCCC2)nc2ccccc12 | active: 29.1 µM | – |
| CCOc1cc(N2CCOCC2)c(OCC)cc1NC(=O)COC(=O)[C@@H]1CCCN1S(=O)(=O)c1ccccc1F | inconclusive [inhibitor, single point] | – |
| O=C(CSc1nnnn1-c1ccc2c(c1)OCCO2)N1CCN(C(=O)c2ccco2)CC1 | inactive | – |
| COc1cc(Cl)c(NS(=O)(=O)c2c(C(=O)N3CCCC3)c(C)n(C)c2C)c(OC)c1 | inconclusive [inhibitor, single point] | – |
| COc1ccc(CN2C(=O)N(c3cccc(C)c3)C(=O)C2CC(=O)Nc2ccc(F)cc2)cc1OC (stereo unspecified) | inactive | – |
| Cc1ccc(C(=O)N2CCN(CCNC(=O)C(=O)NC(C)C)CC2)cc1 | inactive | – |
| COc1cc(/C=C/c2cc(C(=O)O)c3ccccc3n2)ccc1OC(F)F | inconclusive [inhibitor, single point] | – |
| O=C(Cc1cccc(C(F)(F)F)c1)NCc1cccnc1 | inactive | – |
| CCOC(=O)N1CCN(C(=O)CSc2nnc(-c3ccc(C)c(C)c3)o2)CC1 | inconclusive [inhibitor, single point] | – |
| O=C(CN1C(=O)NC2(CCCC2)C1=O)N1CCN(c2cccc(C(F)(F)F)c2)CC1 | inconclusive [inhibitor, single point] | – |

| SMILES | Potency | activity change, negative = growth inhibition |
| --- | --- | --- |
| CC(O)CNc1nc2c(c(=O)n(C)c(=O)n2C)n1CCc1ccccc1 (stereo unspecified) | inconclusive [inhibitor, single point] | – |
| COc1cccc(C(=O)Nc2nc3c(s2)CCCC3)c1 | inconclusive [inhibitor, single point] | – |
| O=C(CCS(=O)(=O)c1ccc(Cl)cc1)N1CCN(c2ccc(F)cc2)CC1 | active: 14.6 µM | – |
| COc1ccc(CN(C)C(=O)c2cccc(NC(=O)CC3SC(N4CCCCC4)=NC3=O)c2)c(OC)c1 (stereo unspecified) | active: 5.17 µM | – |
| Cc1coc(C)c1C(=O)Nc1ccc2ccccc2c1 | inactive | – |
| CCOC(=O)c1ccccc1NC(=S)N1CC(C)CC(C)C1 (stereo unspecified) | inconclusive [inhibitor, single point] | – |
| CN(C)c1ccc(NC(=O)CN2C3CCCC2CC(NC(=O)c2ccccc2)C3)cc1 (stereo unspecified) | inactive | – |
| OC(c1ccc(-c2ccccc2)cc1)c1ncc(-c2ccccc2Cl)[nH]1 (stereo unspecified) | inconclusive [inhibitor, single point] | – |
| COc1ccc(Cl)cc1NC(=O)Nc1ccc(Br)cn1 | inconclusive [inhibitor, partial curve] | – |
| CN(C)c1ccc(/C=C/c2ccnc3c(Cl)cccc23)cc1 | active: 11.2 µM | – |
| O=C(CSC(=S)N1CCCCC1)c1c(F)cccc1F | inconclusive [inhibitor, partial curve, poor fit] | – |
| COc1ccc(CNC(=O)C2CCN(S(=O)(=O)c3ccc(-c4nn[nH]n4)cc3)CC2)cc1 | inactive | – |
| COc1ccc(C(=S)N2CCOCC2)cc1OS(=O)(=O)c1ccc(Br)cc1 | inconclusive [inhibitor, single point] | – |
| Cc1cc(C)cc(N(C(=O)CNC(=O)c2ccco2)C(C(=O)NC2CCCCC2)c2cccnc2)c1 (stereo unspecified) | inactive | – |
| CCCCNC(=O)C1(C)CCN1C(=O)Cc1cccc2ccccc12 (stereo unspecified) | inconclusive [inhibitor, single point] | – |
| Fc1ccccc1N1CCN(CC2CCCCC2)CC1 | inactive | – |
| C[C@H](NC(=O)c1ncn(Cc2ccccc2)c1C(=O)N[C@@H](C)c1ccccc1)c1ccccc1 | inconclusive [inhibitor, single point] | – |
| CCOc1ccc(C2c3[nH]c4ccccc4c3CCN2C(=O)CSc2ccccc2)cc1 (stereo unspecified) | inconclusive [inhibitor, single point] | – |
| CCc1ccc(N(C(=O)Cc2cccs2)C(C(=O)NC2CCCCC2)c2cn(C)nc2C)cc1 (stereo unspecified) | inconclusive [inhibitor, partial curve] | – |
| COc1ccc(N2C(=O)c3ccccc3NC(=O)C2C(=O)Nc2ccc(N3CCOCC3)cc2)cc1 (stereo unspecified) | inconclusive [inhibitor, single point] | – |
| CCCOc1ccc(/C=N/Nc2ccccn2)cc1OC | inactive | – |
| Cc1ccc(OCC(=O)NNC(=O)C2CCC2)cc1C | inactive | – |
| CC(C)c1ccc(S(=O)(=O)NC2CCS(=O)(=O)C2)cc1 (stereo unspecified) | inactive | – |
| O=C(Nc1ccc(Cc2ccncc2)cc1)c1cc(F)c(F)cc1Cl | inactive | – |

| SMILES | Potency | activity change, negative = growth inhibition |
| --- | --- | --- |
| CC(NC(=O)c1ccco1)C(=O)N1CCN(c2cccc(C(F)(F)F)c2)CC1 (stereo unspecified) | active: 13 µM | – |
| CCOc1ccccc1C1C(C#N)=C(N)Oc2n[nH]c(CC)c21 (stereo unspecified) | – | inconclusive: -33.6% [inhibitor] |
| Cc1ccc(S(=O)(=O)/N=C(/Nc2ccc([N+](=O)[O-])cc2[N+](=O)[O-])c2ccccc2)cc1 | inconclusive [inhibitor, single point] | – |
| Cc1ccc(NC(=O)CN2CCN(S(=O)(=O)c3ccc4c(c3)OCCO4)CC2)c(C)c1 | inactive | – |
| CCOC(=O)c1cc(NC(=O)c2ccc(C)cc2)c(=O)n2c1oc1ccccc12 | inactive | – |
| CC(=O)NC(c1ccccc1)c1nc(-c2cnc3ccccc3c2)cs1 (stereo unspecified) | active: 11.6 µM | – |
| CCCCn1c(=O)[nH]c(=O)c2c1nc(-c1ccccc1F)n2Cc1ccccc1OC | active: 23.1 µM | – |
| CCOc1cc(CNCCSc2nnnn2C)ccc1OCc1ccc(Cl)cc1Cl | active: 25.9 µM | – |
| CCc1ccc(S(=O)(=O)NCc2cn3c(C)csc3n2)s1 | inconclusive [inhibitor, partial curve] | – |
| Cc1ccc(NC(=O)CN2C(=O)COc3ccc(S(=O)(=O)N4CCCCC4)cc32)cc1Cl | inconclusive [inhibitor, single point] | – |
| CC(=O)Nc1ccc(S(=O)(=O)Nc2ccccc2N2CCOCC2)cc1Cl | inconclusive [inhibitor, single point] | – |
| COCc1c(C(=O)N/N=C(/C)c2ccc(OCc3ccccc3)cc2)nnn1-c1nonc1N | inactive | – |
| CC(C)(C)N=C1NN=C(c2ccc(Cl)cc2)CS1 | inconclusive [inhibitor, single point] | – |
| Cc1cccc(NC(=O)c2cccc(N3C(=O)C4C5C=CC(C6CC56)C4C3=O)c2)c1 (stereo unspecified) | inconclusive [inhibitor, single point] | – |
| CC(=O)C1=C(C)NC(SCC(=O)Nc2nc3ccccc3s2)=C(C#N)C1c1ccc(Cl)cc1 (stereo unspecified) | inconclusive [inhibitor, single point] | – |
| O=C(CCl)NNC(=O)c1c(O)c2ccccc2[nH]c1=O | active: 4.61 µM | – |
| CCc1ccc(/C=N/NC(=O)c2ccc(OC3CCCC3)cc2)s1 | inconclusive [inhibitor, single point] | – |
| COc1ccc(Nc2ncnc3scc(-c4ccc(F)cc4)c23)cc1 | inconclusive [inhibitor, single point] | – |
| Cc1c(Br)c([N+](=O)[O-])nn1CC(=O)NCc1cccnc1 | inactive | – |
| CNC(=S)NNC(=O)Cc1ccccc1 | inactive | – |
| COc1ccc(Cn2c(SCc3ccc(C(=O)NC4CCCCC4)cc3)nc3cccnc32)cc1 | inconclusive [inhibitor, single point] | – |
| O=C(NC1CCCC(C(F)(F)F)C1)c1ccc([N+](=O)[O-])o1 (stereo unspecified) | inconclusive [inhibitor, single point] | – |
| CC(=O)c1cccc(-n2nnnc2SCC(=O)Nc2ccccc2N2CCCCC2)c1 | inconclusive [inhibitor, single point] | – |
